Data on 50 cell lines can be found in the supplement of paper PMC4967469.

IC50 is the fitted dose that halves viability relative to control wells, and lower means more sensitive; fits outside the tested doses are given as limits. The AUC spans the tested range (256-fold, ending at the top dose) of the same fit; values near 1 show little effect.

Compound in the test: COc1ccc(C2=N[C@@H](c3ccc(Cl)cc3)[C@@H](c3ccc(Cl)cc3)N2C(=O)N2CCNC(=O)C2)c(OC(C)C)c1 [Nutlin-3a]
Briefly: Viability of human cancer cell lines after 72 h of drug (GDSC screen). As to the method:
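Human cancer cell lines in 384-well plates, medium with 10% serum, drug for 72 h over a 256-fold dose range (nine 2-fold or five 4-fold steps up to the top dose). Adherent lines were fixed and stained with the nucleic acid dye Syto60, suspension lines read with resazurin; signal relative to control wells, capped at 0 and 100%. One two-parameter sigmoid per drug and line, fitted in a mixed model over all curves with the slope shared within a line.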

The term IC50 denotes the point on the concentration scale where inhibition reaches its midpoint. For the cell line “JURL-MK1 (chronic myeloid leukaemia, suspension, top dose 8 µM)”, the AUC amounted to 0.959 and the IC50 was over 8 µM.

Consider “JVM-2 (lymphoid neoplasm, suspension, top dose 8 µM)”, for which the AUC is 0.847 and the IC50 is over 8 µM.

For the cell line “JVM-3 (lymphoid neoplasm, suspension, top dose 8 µM)”, the AUC came to 0.718 and the IC50 worked out at 2.09 µM.

Regarding “JiyoyeP-2003 (Burkitt lymphoma, suspension, top dose 8 µM)”, the AUC came to 0.982 and the IC50 was over 8 µM.

Turning to “Jurkat (T-cell leukaemia, suspension, top dose 8 µM)”, the AUC was 0.984 and the IC50 was over 8 µM.

Take K2 (melanoma, adherent, top dose 8 µM): the AUC amounted to 0.947 and the IC50 was over 8 µM.

K5 (thyroid, adherent, top dose 4 µM): the AUC was found to be 0.777 and the IC50 is 1.54 µM.

For “KARPAS-45 (lymphoblastic leukaemia, suspension, top dose 8 µM)”, the AUC is 0.967 and the IC50 was over 8 µM.

On to “KARPAS-231 (B-cell leukaemia, suspension, top dose 8 µM)”, for which the AUC was determined as 0.989 and the IC50 was over 8 µM.

Turning to “KARPAS-299 (anaplastic large cell lymphoma, suspension, top dose 8 µM)”, the AUC was determined as 0.973 and the IC50 was over 8 µM.

Consider “KARPAS-422 (B-cell lymphoma, suspension, top dose 8 µM)”, for which the AUC came to 0.983 and the half-inhibitory concentration (IC50) was over 8 µM.

Regarding “KARPAS-620 (haematopoietic neoplasm, suspension, top dose 8 µM)”, the AUC turned out to be 0.991 and the IC50 is over 8 µM.

On to “KARPAS-1106P (B-cell lymphoma, suspension, top dose 8 µM)”, for which the AUC came out at 0.838 and the IC50 came out at 4.1 µM.

Consider “KATOIII (stomach, semi-adherent, top dose 8 µM)”, for which the AUC was determined as 0.99 and the IC50 is over 8 µM.

Regarding “KCL-22 (chronic myeloid leukaemia, suspension, top dose 8 µM)”, the AUC came out at 0.991 and the IC50 was over 8 µM.

For the cell line “KE-37 (lymphoblastic leukaemia, suspension, top dose 8 µM)”, the AUC was 0.969 and the IC50 was over 8 µM.

For “KELLY (neuroblastoma, adherent, top dose 8 µM)”, the AUC came out at 0.988 and the IC50 was over 8 µM.

“KG-1 (acute myeloid leukaemia, suspension, top dose 8 µM)”: the AUC was determined as 0.974 and the half-inhibitory concentration (IC50) is over 8 µM.

Turning to KGN (ovary, adherent, top dose 8 µM), the AUC came to 0.756 and the 50% inhibitory concentration (IC50) is 3.27 µM.

On to “KINGS-1 (glioma, adherent, top dose 8 µM)”, for which the AUC was determined as 0.979 and the IC50 was over 8 µM.

Regarding “KLE (endometrium, adherent, top dose 8 µM)”, the AUC worked out at 0.974 and the IC50 was over 8 µM.

As to “KM12 (large intestine, adherent, top dose 8 µM)”, the AUC amounted to 0.928 and the IC50 is over 8 µM.

For “KM-H2 (Hodgkin lymphoma, suspension, top dose 8 µM)”, the AUC amounted to 0.942 and the IC50 is over 8 µM.

“KMH-2 (thyroid, adherent, top dose 8 µM)”: the AUC came to 0.99 and the IC50 was over 8 µM.

As to “KMOE-2 (acute myeloid leukaemia, suspension, top dose 8 µM)”, the AUC came to 0.967 and the IC50 is over 8 µM.

For the cell line “KMRC-1 (kidney, adherent, top dose 8 µM)”, the AUC is 0.886 and the IC50 is over 8 µM.

Regarding “KMRC-20 (kidney, adherent, top dose 8 µM)”, the AUC came out at 0.966 and the 50% inhibitory concentration (IC50) is over 8 µM.

Take “KMS-11 (myeloma, suspension, top dose 8 µM)”: the AUC was 0.97 and the concentration for half-maximal inhibition (IC50) was over 8 µM.

“KNS-42 (glioma, adherent, top dose 8 µM)”: the AUC is 0.981 and the 50% inhibitory concentration (IC50) is over 8 µM.

As for “KNS-62 (lung squamous cell carcinoma, adherent, top dose 8 µM)”, the AUC stood at 0.976 and the IC50 is over 8 µM.

As to “KNS-81-FD (glioma, adherent, top dose 8 µM)”, the AUC stood at 0.847 and the IC50 is over 8 µM.

On to “KON (head and neck, adherent, top dose 8 µM)”, for which the AUC was 0.938 and the IC50 is over 8 µM.

Turning to “KOPN-8 (B-cell leukaemia, suspension, top dose 8 µM)”, the AUC was determined as 0.83 and the IC50 worked out at 4.08 µM.

On to “KP-1N (pancreas, adherent, top dose 8 µM)”, for which the AUC is 0.983 and the IC50 is over 8 µM.

With “KP-2 (pancreas, adherent, top dose 8 µM)”, the AUC is 0.963 and the IC50 is over 8 µM.

For the cell line “KP-3 (pancreas, adherent, top dose 8 µM)”, the AUC stood at 0.984 and the IC50 is over 8 µM.

In the case of “KP-N-YN (neuroblastoma, adherent, top dose 8 µM)”, the AUC was found to be 0.983 and the IC50 is over 8 µM.

As to KS-1 (glioma, adherent, top dose 8 µM), the AUC turned out to be 0.743.

Consider “KU812 (chronic myeloid leukaemia, suspension, top dose 8 µM)”, for which the AUC came to 0.952 and the IC50 is over 8 µM.

“KU-19-19 (bladder, adherent, top dose 8 µM)”: the AUC came out at 0.985 and the half-inhibitory concentration (IC50) was over 8 µM.

Take “KURAMOCHI (ovary, adherent, top dose 8 µM)”: the AUC worked out at 0.984 and the 50% inhibitory concentration (IC50) is over 8 µM.

As to “KY821 (leukaemia, suspension, top dose 8 µM)”, the AUC was 0.987 and the IC50 is over 8 µM.

Take “KYAE-1 (oesophagus, suspension, top dose 8 µM)”: the AUC came out at 0.971 and the IC50 was over 8 µM.

Turning to “KYM-1 (rhabdomyosarcoma, adherent, top dose 4 µM)”, the AUC is 0.915 and the IC50 was over 4 µM.

As for “KYSE-50 (oesophagus, adherent, top dose 8 µM)”, the AUC was found to be 0.99 and the IC50 was over 8 µM.

For “KYSE-140 (oesophagus, adherent, top dose 8 µM)”, the AUC was 0.984 and the IC50 was over 8 µM.

For the cell line “KYSE-150 (oesophagus, adherent, top dose 8 µM)”, the AUC was found to be 0.966 and the IC50 is over 8 µM.

As to “KYSE-220 (oesophagus, adherent, top dose 8 µM)”, the AUC worked out at 0.978 and the IC50 was over 8 µM.

“KYSE-410 (oesophagus, adherent, top dose 8 µM)”: the AUC was 0.96 and the 50% inhibitory concentration (IC50) is over 8 µM.

Turning to “KYSE-450 (oesophagus, adherent, top dose 8 µM)”, the AUC is 0.988 and the IC50 was over 8 µM.
